According to article PMC12136788:
Some of the results follow.

T1: UNK ZnF1-6 (called full-length) (human, UniProt Q9C0B0 30-357)
T1 sequence: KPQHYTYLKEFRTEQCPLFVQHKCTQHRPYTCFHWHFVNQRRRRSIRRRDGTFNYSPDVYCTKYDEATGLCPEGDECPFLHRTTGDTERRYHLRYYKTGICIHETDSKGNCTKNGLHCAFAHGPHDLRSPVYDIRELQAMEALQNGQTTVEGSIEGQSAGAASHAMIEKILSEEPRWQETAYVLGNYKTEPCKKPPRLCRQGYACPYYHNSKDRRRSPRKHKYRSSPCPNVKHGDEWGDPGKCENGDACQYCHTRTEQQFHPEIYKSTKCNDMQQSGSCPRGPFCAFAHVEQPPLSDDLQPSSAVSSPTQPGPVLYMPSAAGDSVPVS

B1: chr6:149410404:149410522:+|3pUTR|ENSG00000055208|unk|total|mutant (ssRNA)
RNA: GGGAGUUCUACAGUCCGACGAUCUUAUAUUUCUAUAUGUACCGUGUAACCGCCUUUUGUUAACUAAUUUUCUUUUUUCCUUUCCGUAAUUAAGCACGAUCAUGUCCCUUUUUAAGCCUUACCUGAGAGGAACAAUGCCUUAAACAACAGAGGAUUGAGCAUCA
B2: chr2:240466480:240466663:+|3pUTR|ENSG00000063660|msi1|total|mutant (ssRNA)
RNA: GGGAGUUCUACAGUCCGACGAUCGGAGCCAGUGUGCCCAAAAGCCAUGUAUUUCAGGGACCUCAGGGGCACCUCCGGCUGCCCCGCCCUCCCCCCAGCUCCCUGCACCGCCGCAGAAGCAGCCCCUCGAGGCCUACAGAGGAGCAACAGAGGAUUGAGCAUCA
B3: chr1:183252010:183252124:-|3pUTR|ENSG00000157064|unk|total|mutant (ssRNA)
RNA: GGGAGUUCUACAGUCCGACGAUCUCUUUGUUCACUCCCUGCCGAACUUGGAUGAAAUCAGUGUCCAUGGUUCUUUAUGUUUGCCGUCUUGAUGUGCUCCUGUGGUAUUACUUCCCCUCUGACCGGACAUUGCCGCCAGCCUCACAACAGAGGAUUGAGCAUCA
B4: ENSG00000119522:stop:overlap|stop_codon|ENSG00000119522|stop_codon|NA|stop_codon (ssRNA)
RNA: GGGAGUUCUACAGUCCGACGAUCUGGGCGAGUACGCUGGCAGUGACAAACUGUACCAUCAGUGGCUCUCCACUGUCCGGAUUUAGAUGUUAAGGAAGGCAGCCUACCAGAGAGAUUUAAAAAAACACCACAGAAAACCAAGGACAACAGAGGAUUGAGCAUCA
B5: ENSG00000136451:be:win_1001|CDS|ENSG00000136451|bound_else_gene|NA|bound_elsewhere_windowed (ssRNA)
RNA: GGGAGUUCUACAGUCCGACGAUCACCAAAAGCAGCAGCAGCAGCAGCAGCAGCAGCAGCAGCAGCAGCAACAACAACAACAACAACAUGUGACAAGCUGGCCAGGGAAGCAAGUAGAAACACUGAGACUGUGGGAAGAAGCUGCAACAGAGGAUUGAGCAUCA
B6: chr3:129431351:129431457:-|3pUTR|ENSG00000129071|unk|FALSE|unique (ssRNA)
RNA: GGGAGUUCUACAGUCCGACGAUCACUUCAAAAAAGCUUAAUUAAGUACAACCAACCACCUUUCCAGCCAUAGAGAUUUUAAUUAGCCCAACUAGAAGCCUAGUGUGUGUGCUUUCUUAAUGUGUGUGCCAAUGGUGGAUCUUUCAACAGAGGAUUGAGCAUCA
B7: chr4:69204429:69204649:-|CDS|ENSG00000213759|control|control|control (ssRNA)
RNA: GGGAGUUCUACAGUCCGACGAUCCCAUUGUUUUUUGAUCAACCUGAUAACAUUGCUCACAUGAAGGCCAAGGGAGCAGCUGUUAGAUUGGACUUCAACACAAUGUCGAGUACAGACCUGCUGAAUGCACUGAAGACAGUAAUUCAACAGAGGAUUGAGCAUCA
B8: chr8:41262032:41262394:-|3pUTR|ENSG00000104332|msi1|FALSE|unique (ssRNA)
RNA: GGGAGUUCUACAGUCCGACGAUCGGCCGUUCUGACCUGUUGCCAGCAGAUACACAGGACAUGGAUGAAAUUCCCGUUUCCUCUAGUUUCUUCCUGUAGUACUCCUCUUUUAGAUCCUAAGUCUCUUACAAAAGCUUUGAAUACCAACAGAGGAUUGAGCAUCA
B9: chr15:43184406:43184511:+|CDS|ENSG00000137842|unk|FALSE|unique (ssRNA)
RNA: GGGAGUUCUACAGUCCGACGAUCACUGCUGUACAUCUGGCAGGUUUAUUCCUGCUACUUUCUUUAUGCAACAUACGGCACCCUAGCUUUUUUAUUCUCCCCUUUGCGGACCUGGUUGACACUGCUGACACCUGUUCUCAUUCGCAACAGAGGAUUGAGCAUCA
B10: chr5:40568104:40569403:-|three_prime_utr|ENSG00000113638|control|control|control (ssRNA)
RNA: GGGAGUUCUACAGUCCGACGAUCGCGUGAGACACCAUGCUCAGUCCUUAACAUCUUUCAAGGGAUGUGAUUCUUUGUGGCAGUAGAAAGGUGCUUUUGAAUUCCUGGAUCCUCUUUUAAACACUAUCAAAUUAGAAUAUACUUCAACAGAGGAUUGAGCAUCA
B11: chr21:25606471:25606579:-|CDS|ENSG00000154719|unk|FALSE|unique (ssRNA)
RNA: GGGAGUUCUACAGUCCGACGAUCUGAUCUCUUUAAUAAAGAGAAAGCCAGGCAGUUAUCAUUAACUCCCCGAACUGAGAAGAUAGAAGUUAAGCAUGUUGGGAAAACUGACCCCGGUACUGUCUUCGUGAUGAAUAAAAACAUCAACAGAGGAUUGAGCAUCA
B12: chrX:85861749:85861850:-|3pUTR|ENSG00000188419|msi1|FALSE|unique (ssRNA)
RNA: GGGAGUUCUACAGUCCGACGAUCCUAAUUUAAAAUUUCAGAAAAUGCUAUUAAAGAAUUUUGAUUCAAGUAUUUAAACUGUUUAGUUAUGCAUGCUUCUUAUUAACCGAAAAUGAUAAUACCAUUUAGUUUAGUGAUCAGUAUCAACAGAGGAUUGAGCAUCA
B13: ENSG00000181104:stop:overlap|stop_codon|ENSG00000181104|stop_codon|NA|stop_codon (ssRNA)
RNA: GGGAGUUCUACAGUCCGACGAUCGUAAAAUGGAUACCUGCUCUAGUAACCUGAAUAACAGCAUAUACAAAAAGCUGUUAACUUAGGAAAAGGGACUGCUGGGAGGUUAAAAAGAAAAGUUUAUAAAAGUGAAUAACCUGAGGACAACAGAGGAUUGAGCAUCA
B14: chr2:112659350:112659462:+|CDS|ENSG00000144136|unk|FALSE|unique (ssRNA)
RNA: GGGAGUUCUACAGUCCGACGAUCCUUGCCAAGGUGGGAGAUUGCAUGGGAGACUCCGGUGACAAACCCUUAAGGCGCAAUAAUAGCUAUACUUCCUAUACCAUGGCAAUAUGUGGCAUGCCUCUGGAUUCAUUCCGUGCCAAACAACAGAGGAUUGAGCAUCA

Molecular target: T1, UNK ZnF1-6 (called full-length)
Experiment: nsRBNS (natural sequence RNA bind-n-seq); RBNS binding buffer (assumed for nsRBNS): 25 mM Tris pH 7.5, 150 mM KCl, 3 mM MgCl2, 0.01% Triton X-100, 500 ug/ml BSA, 20 U/ml SUPERase-In, 4 C; UNK is unkempt and MSI1 is Musashi-1; names of the RNAs are library labels; protein concentration not given here; high values mean tight binding

| Binder | binding signal [enrichment R] |
| --- | --- |
| B1 | 4.24 |
| B2 | 0.698 |
| B3 | 0.646 |
| B4 | 0.997 |
| B5 | 0.905 |
| B6 | 5.99 |
| B7 | 0.475 |
| B8 | 3.06 |
| B9 | 2.15 |
| B10 | 4.47 |
| B11 | 0.399 |
| B12 | 2.27 |
| B13 | 0.513 |
| B14 | 0.72 |
